According to PMC4336329 (PLoS ONE, 2015):
The whole screen tested about 310,000 compounds, of which about 2,200 (0.71%) showed an effect of 50% or more. Effects have a minus sign here. This is one part of the list.

Target: human ether-à-go-go-related gene (hERG) potassium channel (human, UniProt Q12809)
Assay: primary screen, population patch clamp on CHO cells stably expressing hERG

human ether-à-go-go-related gene (hERG) potassium channel, sequence (Q12809 whole entry, looked up): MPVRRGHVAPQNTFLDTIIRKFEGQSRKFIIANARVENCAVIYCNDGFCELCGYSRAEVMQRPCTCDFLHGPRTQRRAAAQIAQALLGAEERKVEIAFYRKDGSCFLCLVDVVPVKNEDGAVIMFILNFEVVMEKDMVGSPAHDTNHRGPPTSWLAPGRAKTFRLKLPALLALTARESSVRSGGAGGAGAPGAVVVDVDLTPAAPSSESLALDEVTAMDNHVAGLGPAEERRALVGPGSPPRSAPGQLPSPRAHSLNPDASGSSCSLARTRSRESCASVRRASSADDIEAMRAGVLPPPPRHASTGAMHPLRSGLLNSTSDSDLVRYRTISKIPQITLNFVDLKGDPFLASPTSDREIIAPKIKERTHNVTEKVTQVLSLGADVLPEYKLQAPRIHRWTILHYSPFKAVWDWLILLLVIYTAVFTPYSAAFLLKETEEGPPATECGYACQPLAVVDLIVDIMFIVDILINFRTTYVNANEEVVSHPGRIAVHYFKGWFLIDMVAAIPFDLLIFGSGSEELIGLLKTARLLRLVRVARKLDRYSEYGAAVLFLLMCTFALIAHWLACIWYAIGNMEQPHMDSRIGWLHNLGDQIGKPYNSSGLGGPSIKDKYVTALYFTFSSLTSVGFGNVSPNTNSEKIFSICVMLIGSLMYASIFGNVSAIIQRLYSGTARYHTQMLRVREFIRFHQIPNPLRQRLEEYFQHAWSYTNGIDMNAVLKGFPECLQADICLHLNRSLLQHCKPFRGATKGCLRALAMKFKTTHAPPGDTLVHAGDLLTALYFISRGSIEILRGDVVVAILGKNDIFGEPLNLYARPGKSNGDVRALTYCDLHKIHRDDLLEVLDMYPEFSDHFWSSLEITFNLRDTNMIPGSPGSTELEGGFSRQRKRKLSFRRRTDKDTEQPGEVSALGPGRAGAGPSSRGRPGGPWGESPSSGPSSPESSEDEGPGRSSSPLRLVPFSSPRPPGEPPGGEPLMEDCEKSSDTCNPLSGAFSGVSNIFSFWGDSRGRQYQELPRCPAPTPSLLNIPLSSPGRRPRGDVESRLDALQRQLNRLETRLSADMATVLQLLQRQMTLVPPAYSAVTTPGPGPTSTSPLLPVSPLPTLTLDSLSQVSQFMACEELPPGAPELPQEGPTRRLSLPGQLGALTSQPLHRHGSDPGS

| Structure (SMILES) | hERG current change (%, negative = inhibition) at 1uM [%] |
| --- | --- |
| FC(F)(F)c1ccc(Oc2ccccc2Cl)nc1 | 9.78 |
| CCN(CC)CCN1C(=O)c2ccccc2NC1c1cc(OC)c(OC)c(OC)c1 (stereo not drawn) | -3.95 |
| CCCn1c(N)c(N(CCOC)C(=O)c2ccc(C#N)cc2)c(=O)[nH]c1=O | 16 |
| CCOC(=O)Cc1csc(NS(=O)(=O)c2ccc([N+](=O)[O-])cc2)n1 | 10.8 |
| CC(=O)Nc1cccc(NC(=O)COc2ccc3c(c2)CCC3)c1 | 6.87 |
| COCCNC(=O)C(c1cccs1)N(Cc1ccccc1)C(=O)Cn1nnc2ccccc21 (stereo not drawn) | 4.06 |
| CCOC(=O)NC(=O)/C(C#N)=N\Nc1cccc(Cl)c1 | 11.1 |
| Cc1cccc(NC(=O)COC(=O)c2ccc(C)c(S(=O)(=O)N3CCCCC3)c2)c1 | -0.561 |
| CCCN(CCC)CCCNC(=O)C1CCC(CNS(=O)(=O)c2cccc3nsnc23)CC1 (stereo not drawn) | 9.03 |
| COc1cccc(N2CC(=O)Nc3c(oc4nc(-c5ccccc5)cc(C)c34)C2=O)c1 | 9.86 |
| CC1CCN(S(=O)(=O)c2ccc(C(C)C)cc2)CC1 | 21.6 |
| CC(=O)NC(c1cccc([N+](=O)[O-])c1)c1c(OC(C)=O)ccc2ccccc12 (stereo not drawn) | 3.02 |
| CC1CC(C)CN(c2oc(-c3ccco3)nc2C#N)C1 (stereo not drawn) | 9.03 |
| NC(=O)c1nsc(C(=O)N(c2cccc(O)c2)C(C(=O)NC2CCCC2)c2ccc(Cl)cc2)c1N (stereo not drawn) | 5.85 |
| CCc1ccc2nc(N(CCN(C)C)C(=O)/C=C/c3cccs3)sc2c1.Cl | 3.37 |
| CC(=O)N/C(=C/c1ccc2c(c1)OCO2)C(=O)NCC(=O)O | 13.2 |
| CC1CCN(S(=O)(=O)c2ccc(NC(=O)CN3CCOCC3)cc2)CC1 | -6.08 |
| COc1ccccc1CNC(=O)N1CCN(S(=O)(=O)c2ccc(Cl)cc2)CC1 | 11.1 |
| CN(c1ccc(C(=O)N2CCc3ccccc3C2)cc1)S(C)(=O)=O | -2.2 |

| Structure (SMILES) | hERG current change (%, negative = inhibition) at 1uM [%] |
| --- | --- |
| O=C1CC(NS(=O)(=O)c2cccnc2)CN1c1cccc(F)c1 (stereo not drawn) | 10.3 |
| Cc1ccc(C[n+]2cc(-c3ccc(Cl)cc3)n3c2CCC3)cc1.[Cl-] | -14.5 |
| N#CCc1ccc(NS(=O)(=O)c2cccs2)cc1 | -0.91 |
| NCCCC[C@H]1CN=C(N)N1CCCCC1CCCCC1 | 6.58 |
| COc1ccccc1/C=N/OC(=O)c1ccc(C)cc1 | 7.27 |
| Cc1c(C(=O)Nc2ccc(S(=O)(=O)NCC3CCCO3)cc2)cccc1[N+](=O)[O-] (stereo not drawn) | -3.96 |
| O=C(CN1C(=O)c2ccccc2S1(=O)=O)NCc1ccc(F)cc1 | 16.7 |
| CCN(Cc1ccccc1)C1CCN(Cc2ccccc2)CC1 | 7.92 |
| O=C1CNC(=S)N1Cc1ccc(Cl)cc1 | 13.3 |
| CC12CC3CC(C)(C1)CC(C(=O)NC(=S)N1CCCCC1)(C3)C2 | 8.07 |
| COc1cc(/C=N/N2CCN(Cc3ccc(Cl)cc3)CC2)cc(Br)c1O | 9.38 |
| CCOC(=O)c1cc(NC(=O)c2ccc(OC)cc2)c(=O)oc1-c1ccccc1 | 5.82 |
| CC(C)C1CC(C(=O)Nc2ccccc2)C(=O)O1 (stereo not drawn) | 13.4 |
| COc1ccc(N2CCN(C(=O)c3cccc(S(=O)(=O)N4CCOCC4)c3)CC2)cc1 | 14.7 |
| COC(=O)CSc1nsc(SCC(=O)OC)n1 | -0.203 |
| COc1cc(NC(=O)COC(=O)/C=C/c2ccccc2Cl)cc(OC)c1 | 10.1 |
| Cc1nnc(SCC(=O)NNC(=O)COc2ccc(Cl)cc2)s1 | 11.9 |
| Cc1[nH]c2ccccc2c1C(=O)C(=O)N1CC=C(c2ccccc2)CC1 | -1.07 |
| Cc1c(N/C(=N/S(=O)(=O)c2cc([N+](=O)[O-])ccc2Cl)c2ccccc2)c(=O)n(-c2ccccc2)n1C | 2.51 |

| Structure (SMILES) | hERG current change (%, negative = inhibition) at 1uM [%] |
| --- | --- |
| COc1ccc(CN(C(=O)CN2C(=O)NC3(CCC(C)CC3)C2=O)C(C)Cc2cccs2)cc1 (stereo not drawn) | -13.7 |
| COc1ccc(Br)cc1C1CC(=O)C(C)C(c2cc(Br)ccc2OC)N1 (stereo not drawn) | 17.3 |
| c1ccc(-c2ncnc3nc4n(c23)CCC4)cc1 | 9.11 |
| COc1ccc(-c2sc3cc(OC)c(OC)cc3c2C#CCCO)cc1 | 15.5 |
| Cc1ccccc1N1CCN(Cc2ccc(Br)o2)CC1 | 4.76 |
| CCN1C(=O)/C(=C\N(C)C)NC1=S | 12.5 |
| C[C@H](NC(=O)CCCn1nnc2ccccc2c1=O)C(=O)O | 2.22 |
| CCc1ccc2c(CN3CCc4ccccc43)cc(=O)oc2c1 | 12.7 |
| CC1(C)CC(=O)C2=C(C1)N1CCCCC1CC2=O (stereo not drawn) | 4.55 |
| Cc1ccc(C)c(N2CCN(C(=O)CCn3c(=S)[nH]c4cc5c(cc4c3=O)OCO5)CC2)c1 | 5.54 |
| COc1ccc(C(C)=O)cc1COC(=O)CNC(=O)c1ccc(F)cc1 | 5.59 |
| Cc1ccc(-n2c(CNc3ccc(F)cc3)nnc2SCC(=O)O)cc1 | 14.7 |
| CCOc1cccc(OCCOCCNC(C)(C)C)c1.O=C(O)C(=O)O | 11.7 |
| CC(C(c1cccs1)c1c(N)n(C)c(=O)n(C)c1=O)[N+](=O)[O-] (stereo not drawn) | 8.07 |
| O=C(CN1c2ccccc2Sc2ccccc21)N/N=C/c1ccc(Cl)cc1 | 4.36 |
| COc1ccc(S(=O)(=O)NCCc2c[nH]c3ccccc23)cc1OC | 12.4 |
| N#Cc1ccc(NC(=O)CCc2nc3ccccc3s2)cc1 | 7.52 |
| CC(C)N=C(NS(=O)(=O)NC(=O)c1ccccc1)c1ccccc1 | 1.76 |
| Cn1c(=O)n(CC(=O)O)c(=O)c2c1nc1n2CCCN1CCc1ccccc1 | 11.4 |
